IFI data for 89 compounds are collected here from ChEMBL document CHEMBL1157539, “Thousands of chemical starting points for antimalarial lead identification” (Nature, 2010).

In all, about 13,000 compounds were measured (“IFI”: median about 4, highest 2% from about 17 on). Some of the results follow.

The nature of this assay: GSK_TCMDC: Inhibition Frequency Index (IFI). The number of non-kinase HTS assays where a compound showed > 50 % inhibition, expressed as a percentage of the number of such assays in which the compound was tested (-0 is zero). The class given is functional.
As to `Cc1cccc2nc(-c3ccc(-c4cccc(NC(=O)NCc5ccccc5)c4)cc3)[nH]c12`, the IFI amounted to 4.04%.

On to `CS(=O)(=O)CCNCc1cccc(-c2cc3c(Nc4ccc5c(cnn5Cc5ccccc5)c4)ncnc3s2)c1`, for which the IFI stood at 2.61%.

Compound `CN1CCN(Cc2ccc(-c3ccc4ncnc(Nc5ccc(OCc6ccccc6)cc5)c4c3)o2)CC1` came in with an IFI of 6.98%.

`Cc1cc(CNCCCCCCNCc2ccc(-c3ccccc3)cc2)ccc1O` returned an IFI of 5.11%.

On to `NCc1ccc(-c2ccc3c(N)nccc3c2)cc1`, for which the IFI came out at 3.85%.

Consider `COc1ccc2nccc([C@@H](O)CN3CCC(NCCOc4ccc(F)cc4Cl)CC3)c2c1`, for which the IFI was determined as 1.49%.

The compound `COc1ccc2nccc([C@@H](O)CN3CCC(NC(=O)c4cc5ccccc5[nH]4)CC3)c2c1` gave an IFI of 2.21%.

`Nc1ccc(-c2nc3cc(C4=N[C@H]5CCCC[C@H]5N4)ccc3o2)cc1[N+](=O)[O-]`: the IFI was determined as 1.41%.

Take `COc1ccc2nc3cc(Cl)ccc3c(NCCN3CCN(C)CC3)c2c1`: the IFI is 4.9%.

For `CC(C)(C)c1ccc(CN2CCCCC(NC(=O)c3cc(-c4cccc(F)c4)cs3)C2)cc1` (centres undefined), the IFI turned out to be 3.64%.

`CC(C)(C)N1CCC(N(Cc2ccc(-c3ccc(C(F)(F)F)cc3)cc2)C(=O)Cn2c(CCc3cccc(F)c3F)nc(=O)c3cccnc32)CC1` came in with an IFI of 16.7%.

On to `COc1ccc2nccc(N3CCC(CCNCc4ccc5c(n4)NC(=O)CO5)CC3)c2c1`, for which the IFI is 5.84%.

`CC(C)Cn1cc(C2CCN(CCN3CCC(CNC(=O)c4ccc(NC(=O)c5ccc(Cl)cc5)cc4)CC3)CC2)c2ccccc21`: the IFI is 8.04%.

`COc1ccc(CN2CCC(NCc3cccc(-n4ccnc4)c3)CC2)cc1` came in with an IFI of 0.67%.

`C=CCOC(=O)O[C@@H]1[C@@H](OC(=O)OCC=C)[C@@H](OC)O[C@H](COC(c2ccccc2)(c2ccccc2)c2ccccc2)[C@H]1OC(=O)OCC=C` showed an IFI of 0.76%.

In turn, `OC1(c2ccc(Br)cc2)CCN(C2CCN(Cc3ccccc3)CC2)CC1` gave an IFI of 1.42%.

As to `N=C(N)NN=C1C=Cc2cccc3cccc1c23`, the IFI is 8.57%.

`CN(C)CCOc1cc(NC(=O)Nc2cccc3c(-c4ccncc4)cccc23)ccc1I` came in with an IFI of 8.33%.

As for `Cc1cc(O)c(CN(C)Cc2ccc3c(c2)OCCO3)cc1C(C)C`, the IFI was 2%.

`COc1ccc(Cl)cc1N1CCN(CCCNC(=O)c2ccc(-c3nc4cc(Cl)c(F)cc4[nH]3)cc2)CC1` gave an IFI of 0.72%.

As for `CCc1cc(NCc2ccncc2)nc(Nc2ccc(F)cc2)n1`, the IFI came to 1.39%.

Regarding `CN(C)CCN(C)Cc1ccc(-c2ccc3c(Nc4ccc(Cl)cc4F)ccnc3c2)o1`, the IFI worked out at 6.67%.

Consider `CCn1c(SCC(=O)Nc2cc(C(F)(F)F)ccc2Cl)nc2ccccc2c1=O`, for which the IFI came to 3.66%.

In turn, `Cc1[nH]c(C)c(-c2ccc(OCCCc3ccccn3)cc2)c(=O)c1Br` came in with an IFI of -0%.

With `Nc1nc(N)c2cc(Sc3ccc4ccccc4c3)ccc2n1`, the IFI turned out to be 2.48%.

`CCNC(=O)Nc1cccc(-c2cccc(-c3nc4cccc(C)c4[nH]3)c2)c1` showed an IFI of 5.05%.

As for `Cc1ccc2c(N/N=C/c3cccc([N+](=O)[O-])c3)cc(C)nc2c1`, the IFI came out at 5.19%.

The compound `Cc1cc(Nc2ccc(OCc3ccccc3Cl)cc2)c2cc(Cl)ccc2n1` yielded an IFI of 6.38%.

Turning to `O=C(O)C[C@H](NC(=O)c1cc(-c2ccc3c(c2)OCO3)no1)C(=O)O.O=C(O)C[C@H](NC(=O)c1conc1-c1ccc2c(c1)OCO2)C(=O)O`, the IFI came out at 0%.

`CCN(CC)CCCC(C)Nc1c(-c2ccc(C)cc2)cnc2ccccc12` (centres undefined) displayed an IFI of 1.45%.

With `Cc1ccccc1C1CCN(C2CCC(NC(=O)/C=C/c3ccc(C#N)cc3)CC2)CC1` (centres undefined), the IFI was determined as 8.62%.

Regarding `O=C(Nc1ccc2c(c1)CCNCC2)c1ccc(-c2ccc(Cl)cc2)cc1`, the IFI is 9.66%.

Turning to `COC(=O)c1ccc(CN2CCC(N(Cc3cccc(Oc4ccccc4)c3)S(=O)(=O)c3ccc(NC(C)=O)cc3)CC2)cc1`, the IFI was 0.72%.

Consider `CCOc1c(Br)cc(C)cc1CNCCCNc1nc2ccccc2[nH]1`, for which the IFI turned out to be 3.5%.

`O=C(Nc1cccc(CN2CCN(C(=O)c3cccc(Cl)c3)CC2)c1)c1cccs1`: the IFI turned out to be 6.15%.

Take `Clc1ccccc1CCNCC1CCN(CC2CCCCC2)CC1`: the IFI is 2.17%.

Compound `COc1cccc(-c2ccc(C(=O)NCC3CCCN(Cc4cccc(C(F)(F)F)c4)C3)s2)c1` (centres undefined) returned an IFI of 5.45%.

Compound `COc1cc(C(=O)NC2CC(C)(C)N(C)C(C)(C)C2)ccc1-c1nc2cc(Cl)c(Cl)cc2[nH]1` registered an IFI of 9.3%.

The compound `CCCN(CCC)C(=O)c1cc(C(=O)N[C@@H](Cc2ccccc2)[C@H](O)CNC(C)(C)c2cccc(OC)c2)cc(N2CCCCS2(=O)=O)c1` came in with an IFI of 3.62%.

Compound `FC(F)(F)c1cccc(Nc2nc3ccccc3nc2Nc2cccc(C(F)(F)F)c2)c1` had an IFI of 10%.

`O=C(Nc1cccc(-c2ccc(CN3CCCC3)cc2)c1)c1ccc(Cl)cc1` displayed an IFI of 2.88%.

In the case of `COc1ccc2c(c1)nc(CNC(=N)N)n2Cc1ccc(Cl)cc1`, the IFI came to 2.17%.

`O=C(Nc1ccc(Cn2ncc(N3CCCNCC3)c(Cl)c2=O)cc1)Nc1ccc(OCc2ccccc2)cc1` showed an IFI of 10.3%.

On to `CCc1cc(=O)[nH]c(-n2nc(C)cc2NC(=O)CC(c2ccccc2)c2ccccc2)n1`, for which the IFI came out at 10.4%.

On to `CCc1nnc2sc(-c3cccc(NC(=O)c4ccc(C)c([N+](=O)[O-])c4)c3)nn12`, for which the IFI was determined as 3.45%.

In turn, `CCc1ccc(-c2cnc(N)c3cc(-c4ccnc(N)n4)ccc23)cc1` returned an IFI of 2.17%.

For `COc1cc(CC2c3cc(O)c(Cl)cc3CCN2C)c(OC)cc1C` (centres undefined), the IFI turned out to be 2.13%.

Compound `O=C(/C=C/c1ccc(Cl)c(Cl)c1)NCCCCCN1CCC(C(=O)Nc2cccc(Cl)c2)CC1` came in with an IFI of 13.5%.

The compound `CCC(CC)C(CC(=O)NC(C)(C)CCc1ccccc1OC)Nc1ccc(C#N)c2ccccc12` (centres undefined) gave an IFI of 0.95%.

On to `Cc1nc(-c2cccc(NC(C)C(=O)Nc3cc(C(F)(F)F)ccc3N3CCOCC3)c2)cs1` (centres undefined), for which the IFI was -0%.

Compound `COc1cc(CNC[C@@H](O)[C@H](Cc2ccccc2)NC(=O)c2cc(OC(C)C)cc(N3CCCCS3(=O)=O)c2)cc(OC)c1` returned an IFI of 3.76%.

Turning to `Cc1ccc(Cn2c(N3CCC(C(=O)NCc4ccccn4)CC3)nc3ccccc32)cc1`, the IFI was 1.08%.

Compound `CC(C)NCc1cccc(-c2ccc(NS(=O)(=O)c3cccc4cccnc34)cc2)c1` returned an IFI of 7.69%.

Take `O=C(/C=C/c1ccc(Cl)c(Cl)c1)NC1CCC(CN2CCC(c3coc4ccccc34)CC2)CC1` (centres undefined): the IFI worked out at 4.93%.

`CCOCCCn1c(=N)c(C(=O)NC(C)c2ccccc2)cc2c(=O)n3cccc(C)c3nc21` (centres undefined): the IFI was determined as 1.69%.

In the case of `CN(C)Cc1cccc(-c2cc3c(-c4cnn(C)c4)c(Cl)cnc3[nH]2)c1`, the IFI is 22.2%.

With `CCCCCCc1cc2cc(-c3csc(C=Cc4ccccc4)n3)c(=O)oc2cc1O`, the IFI worked out at 2.04%.

`Cc1ccc(C(C)C)cc1CON1C(=N)N=C(N)NC1(C)C` displayed an IFI of 6.25%.

As for `ON=C(c1nc2ccccc2[nH]1)c1nc2ccccc2[nH]1`, the IFI turned out to be 7.09%.

Compound `CCN(C(=O)c1ccc(NC(=O)c2cccs2)cc1)c1nc2c(C)cccc2s1` showed an IFI of 3.37%.

`CC(C)(CNCc1ccc(Cl)c(Cl)c1)c1nc(-c2ccc(Cl)c(O)c2)c(-c2ccncc2)[nH]1` gave an IFI of 9.93%.

The compound `Cc1ccccc1C1CCN(C2CCC(NC(=O)c3ccc(-c4cccs4)s3)CC2)CC1` (centres undefined) displayed an IFI of 8.77%.

Take `N#Cc1cccc(C(=O)Nc2cccc(-c3ccc(CN4CCCC4)cc3)c2)c1`: the IFI worked out at 1.96%.

`N#Cc1cncc(-c2nc3c(N4CCN(c5cnccn5)CC4)cccc3n2CCNCc2ccccc2)c1` came in with an IFI of -0%.

The compound `Cn1ncc2c3c(CCN4CCC(NCc5ccc6c(c5)NC(=O)CO6)CC4)c(Cl)cnc3ccc21` yielded an IFI of 4.29%.

`O=c1cc(NCCC(CNCc2cc3ccccc3o2)NCc2cc(Br)cc(Br)c2)[nH]c2ccccc12` (centres undefined) showed an IFI of 8.03%.

`O=C(Nc1ccc(-c2cccc(-c3nc4cc(C(F)(F)F)ccc4[nH]3)c2)cc1)c1ccc(=O)[nH]n1` displayed an IFI of 1.79%.

With `CC(C)(C)c1ccc(CN2CCC(NC(=O)c3ccc(-c4ccccc4F)s3)CC2)cc1`, the IFI amounted to 12.3%.

For the compound `Cc1cc(O)c(CN(C)Cc2ccc3c(c2)OCO3)cc1C(C)C`, the IFI worked out at 2.5%.

The compound `CNC(=O)c1cnc(Nc2ccc(OCC(O)CN(C)C)cc2)nc1Nc1cccc(OC(C)C)c1` (centres undefined) returned an IFI of 3.01%.

Regarding `O=C(Nc1ccc(N2CCCCC2)c(Cl)c1)c1nc[nH]n1`, the IFI came to 1.61%.

Compound `CC(C)OC(=O)c1ccccc1S(N)(=O)=O` registered an IFI of 0.77%.

For the compound `CCc1ccc(S(=O)(=O)Nc2ccc(CCN(C)C3CCN(C)CC3)cc2)cc1`, the IFI came out at 4.76%.

Compound `Cc1ccc(NC(=O)Nc2ccccc2F)cc1-c1ccc(C(=O)Nc2ccncc2)cc1` registered an IFI of 26.4%.

Consider `COc1ccc(CNC2Cc3ccccc3C2)cc1-c1ccc(S(=O)(=O)NCc2cccnc2)s1`, for which the IFI turned out to be 5.56%.

The compound `c1cc(-c2ccc(CNC3CC3)cc2)cc(-c2nc3ccccc3[nH]2)c1` registered an IFI of 2.86%.

For `FC(F)(F)c1ccc2[nH]c(-c3ccc(-c4cccc(CN5CCN(CCN6CCOCC6)CC5)c4)cc3)nc2c1`, the IFI came to 5.63%.

Consider `O=C(Nc1ccc(SC(F)(F)F)cc1)Nc1ccc(Cl)c(Cl)c1`, for which the IFI turned out to be 18.7%.

With `Cc1ccc2[nH]c(C)cc(=NN=Cc3ccccc3F)c2c1`, the IFI worked out at 6.47%.

`COc1ccc2nccc(CCN3CC(O)C(CNCc4ccc5c(n4)NC(=O)CS5)C3)c2n1` (centres undefined): the IFI turned out to be 4.85%.

The compound `O=C(NC12CC3CC(CC(C3)C1)C2)C(=O)c1c[nH]c2ccccc12` showed an IFI of 0.76%.

For `COc1ccc2nc(NC(N)=NC(=O)Nc3ccccc3)nc(C)c2c1`, the IFI was 0.81%.

With `O=C(NCc1ccc(F)cc1)Nc1cccc(-c2ccc(-c3nc4cc(F)ccc4[nH]3)cc2)c1`, the IFI turned out to be 4.92%.

Compound `COc1ccc(CC(=O)Nc2ccc(-c3cccc(-c4nc5cccc(C)c5[nH]4)c3)cc2)cc1O` had an IFI of 3.51%.

For the compound `Nc1ncc(-c2ccsc2)c2ccc(-c3cc(NCc4ccccc4)ncn3)cc12`, the IFI was found to be 3.13%.

Take `Cn1nc(C(F)(F)F)c(-c2ccc(F)cc2)c1NC(=O)Nc1ccccc1`: the IFI came to 8.89%.

On to `O=C(Cc1cccc(OCCCN(Cc2cccc(C(F)(F)F)c2Cl)CC(c2ccccc2)c2ccccc2)c1)NCc1ccco1`, for which the IFI was determined as 1.59%.

In turn, `COc1ccc(Nc2ncc3c(-c4cccc(NC(=O)Cc5cccc(F)c5)c4)c[nH]c3n2)cc1OC` had an IFI of 5.8%.

As to `COc1ccc(Cn2c(Nc3cccc(C(F)(F)F)c3)nc3cc(C(=O)NCCN4CCCC4)cnc32)cc1Cl`, the IFI was 3.73%.
